The results in this text go back to the antibiotic and cytotoxicity screens of Wong et al. (2023).

The subject of one assay is HSkMC. In words: cytotoxicity call (relative viability < 0.9). To be noted: 10 µM.
In a further assay the test system is HepG2. In words: cytotoxicity call (relative viability < 0.9). To be noted: 10 µM.
For a further assay, the system named is S. aureus RN4220. In words: growth inhibition call (relative growth <= 0.2). To be noted: 50 µM.

This is one part of the list.

As to `CCNc1cc(=N)n(CC)c2n[nH]c(N)c12`, the cytotoxicity call in the assay on HSkMC and in the assay with HepG2 was “inactive” each time. In the assay with S. aureus RN4220, the growth inhibition call was “inactive”.
For the molecule `CN(C)C(=O)c1cccc(-c2ccc3n(c2=O)C[C@@H]2[C@@H](CO)[C@H](C(=O)NCC4CC4)N[C@H]32)c1`, the cytotoxicity call in the assay with HSkMC and with HepG2 was “inactive” throughout. Besides, the growth inhibition call in the assay with S. aureus RN4220 was “inactive”.
Turning to `C[C@@H]1CCCCO[C@H](CN(C)C(=O)NC2CCCCC2)[C@H](C)CN([C@@H](C)CO)C(=O)c2cc(NC(=O)Nc3ccccc3)ccc2O1`, the cytotoxicity call in the assay with HSkMC and in the assay on HepG2 was “inactive” throughout. In addition, the growth inhibition call in the assay with S. aureus RN4220 was “inactive”.
With `C[C@H](CO)N1C[C@H](C)[C@@H](CN(C)S(=O)(=O)c2cn(C)cn2)Oc2ccc(NC(=O)C3CC3)cc2CC1=O`, the cytotoxicity call in the assay on HSkMC and in the assay with HepG2 was “inactive” in each case. For the same molecule, in the assay on S. aureus RN4220, the growth inhibition call is “inactive”.
As to `CCCc1cc(=O)n2ncnc2[nH]1`, the cytotoxicity call in the assay with HSkMC and with HepG2 was “inactive” each time. Also, the growth inhibition call with S. aureus RN4220 was “inactive”.
As to `C[C@@H]1CN([C@@H](C)CO)C(=O)c2cc(N(C)C)ccc2O[C@@H]1CN(C)S(C)(=O)=O`, the cytotoxicity call with HSkMC and with HepG2 was “inactive” in each case. In the assay on S. aureus RN4220, the growth inhibition call was “inactive”.
`C[C@@H]1CN([C@@H](C)CO)C(=O)c2cccc(NC(=O)Nc3ccc(F)cc3)c2O[C@H]1CN(C)C(=O)Nc1cccc2ccccc12`: the cytotoxicity call in the assay on HSkMC and with HepG2 was “inactive” throughout. In addition, the growth inhibition call with S. aureus RN4220 is “inactive”.
As to `C[C@H]1CCCCO[C@H](CN(C)C(=O)Nc2ccc(F)cc2)[C@@H](C)CN([C@@H](C)CO)C(=O)c2cc(NC(=O)CCC(F)(F)F)ccc2O1`, the cytotoxicity call with HSkMC and with HepG2 was “inactive” each time. The growth inhibition call in the assay on S. aureus RN4220 is “inactive”.
For the molecule `C[C@@H]1CN([C@@H](C)CO)C(=O)c2cccc(NC(=O)Nc3ccc(F)cc3)c2O[C@@H]1CN(C)CC1CCCCC1`, the cytotoxicity call in the assay on HSkMC and with HepG2 was “inactive” in each case. In addition, in the assay with S. aureus RN4220, the growth inhibition call is “inactive”.
Turning to `CCc1cc(C(N)=S)ccn1`, the cytotoxicity call with HSkMC and with HepG2 was “inactive” throughout. Moreover, the growth inhibition call in the assay on S. aureus RN4220 was “inactive”.
In the case of `Cc1noc(C)c1S(=O)(=O)Nc1ccc2c(c1)CC(=O)N([C@H](C)CO)C[C@@H](C)[C@@H](CN(C)Cc1ccc3c(c1)OCO3)O2`, the cytotoxicity call in the assay with HSkMC was “inactive”. For the same molecule, in the assay on HepG2, the cytotoxicity call is “active”. Further, the growth inhibition call in the assay with S. aureus RN4220 was “inactive”.
`COCC(=O)N(C)C[C@@H]1Oc2cc(-c3ccc(C#N)cc3)ccc2S(=O)(=O)N([C@@H](C)CO)C[C@H]1C`: the cytotoxicity call in the assay on HSkMC and in the assay with HepG2 was “inactive” throughout. In the assay on S. aureus RN4220, the growth inhibition call was “inactive”.
For the molecule `CO[C@H]1CN(C)C(=O)c2cc(NC(=O)Nc3ccccc3F)ccc2OC[C@H](C)N(Cc2ccccc2C(=O)O)C[C@@H]1C`, the cytotoxicity call with HSkMC and in the assay with HepG2 was “inactive” each time. The growth inhibition call with S. aureus RN4220 was “inactive”.
For `C[C@@H]1CN([C@@H](C)CO)S(=O)(=O)c2ccc(C#C[C@@H](C)O)cc2O[C@H]1CN(C)C(=O)C1CCCCC1`, the cytotoxicity call in the assay with HSkMC and in the assay with HepG2 was “inactive” throughout. Moreover, the growth inhibition call in the assay with S. aureus RN4220 was “inactive”.
For the molecule `C[C@@H]1CN([C@H](C)CO)C(=O)c2cccc(NC(=O)Nc3cccc4ccccc34)c2O[C@@H]1CN(C)Cc1ccccc1`, the cytotoxicity call in the assay on HSkMC and in the assay on HepG2 was “inactive” in each case. In addition, the growth inhibition call in the assay on S. aureus RN4220 is “inactive”.
For the molecule `N[C@H]1CC[C@H](CCn2cc(C3CCCCC3)nn2)O[C@@H]1CO`, the cytotoxicity call with HSkMC and with HepG2 was “inactive” throughout. For the same molecule, the growth inhibition call with S. aureus RN4220 is “inactive”.
As to `O=C(OOC(=O)c1ccccc1)c1ccccc1`, in the assay with HSkMC, the cytotoxicity call was “inactive”. Further, the cytotoxicity call in the assay on HepG2 was “active”. In the assay on S. aureus RN4220, the growth inhibition call was “inactive”.
Take `C[C@H](CO)N1C[C@H](C)[C@@H](CN(C)C(=O)Nc2ccc(C(F)(F)F)cc2)Oc2ccc(NC(=O)Nc3ccc4c(c3)OCO4)cc2CC1=O`: the cytotoxicity call in the assay on HSkMC and in the assay on HepG2 was “inactive” in each case. For the same molecule, the growth inhibition call with S. aureus RN4220 was “inactive”.
`CO[C@H]1CN(C)C(=O)c2cc(NC(=O)Nc3cccc(F)c3)ccc2OC[C@@H](C)N(C(=O)Nc2c(C)noc2C)C[C@H]1C`: the cytotoxicity call in the assay with HSkMC and in the assay on HepG2 was “inactive” in each case. Also, the growth inhibition call in the assay with S. aureus RN4220 was “inactive”.
On to `COc1ccc(S(=O)(=O)Nc2ccc3c(c2)C(=O)N([C@@H](C)CO)C[C@H](C)[C@@H](CN(C)Cc2ccc(Cl)c(Cl)c2)O3)cc1`, for which, in the assay on HSkMC, the cytotoxicity call is “active”. Also, the cytotoxicity call in the assay with HepG2 was “inactive”. In addition, the growth inhibition call in the assay with S. aureus RN4220 is “inactive”.
Turning to `C[C@@H]1CN([C@H](C)CO)C(=O)c2cc(NC(=O)Cn3cnnn3)ccc2O[C@@H]1CN(C)S(C)(=O)=O`, the cytotoxicity call in the assay with HSkMC and in the assay with HepG2 was “inactive” each time. For the same molecule, the growth inhibition call in the assay on S. aureus RN4220 is “inactive”.
As to `C[C@@H]1CN([C@@H](C)CO)C(=O)c2cc(NS(=O)(=O)c3ccc(Cl)cc3)ccc2O[C@@H](C)CCCCO[C@@H]1CN(C)C(=O)c1ccccc1`, the cytotoxicity call with HSkMC and in the assay with HepG2 was “inactive” in each case. Moreover, the growth inhibition call in the assay with S. aureus RN4220 is “inactive”.
With `Nc1nc(F)nc2c1ncn2[C@@H]1O[C@H](CO)[C@@H](O)[C@H]1O`, the cytotoxicity call in the assay on HSkMC and in the assay with HepG2 was “active” each time. In addition, the growth inhibition call with S. aureus RN4220 was “inactive”.
For `COC(=O)C[C@@H]1C=C[C@@H](N)[C@H](CO)O1`, the cytotoxicity call in the assay on HSkMC and in the assay with HepG2 was “inactive” each time. The growth inhibition call in the assay with S. aureus RN4220 is “inactive”.
For `C[C@@H]1CN([C@@H](C)CO)C(=O)Cc2cc(NS(=O)(=O)c3cccs3)ccc2O[C@@H]1CN(C)S(=O)(=O)c1cccs1`, the cytotoxicity call in the assay with HSkMC and with HepG2 was “inactive” each time. Also, the growth inhibition call in the assay with S. aureus RN4220 is “inactive”.
With `C[C@@H]1CCCCO[C@@H](CN(C)Cc2ccc(C(=O)O)cc2)[C@@H](C)CN([C@H](C)CO)C(=O)c2cc(NC(=O)Nc3ccc(F)cc3)ccc2O1`, the cytotoxicity call in the assay on HSkMC and with HepG2 was “inactive” each time. For the same molecule, the growth inhibition call in the assay with S. aureus RN4220 is “inactive”.
Consider `O=C1CC2(CCCC2)CC(=O)N1`, for which the cytotoxicity call in the assay with HSkMC and with HepG2 was “inactive” each time. For the same molecule, in the assay on S. aureus RN4220, the growth inhibition call was “inactive”.
Consider `O=C(C[C@@H]1C[C@@H]2c3cc(NS(=O)(=O)c4ccc(F)cc4)ccc3O[C@@H]2[C@@H](CO)O1)NCCc1ccccc1`, for which the cytotoxicity call in the assay on HSkMC (human skeletal muscle cells) and in the assay with HepG2 was “inactive” each time. Also, the growth inhibition call in the assay on S. aureus RN4220 was “inactive”.
